According to PubChem BioAssay AID1347428 (National Center for Advancing Translational Sciences (NCATS), 2020):
About 290 (0.32%) of roughly 91,000 compounds were called active. This list was built around the results that the source calls inconclusive (neither active nor inactive); the mix of calls is not that of the screen. Calls follow the shape of the dose curve; as a rule, active = well fitted inhibition curve with a large enough effect; inconclusive = small, poorly fitted or top-dose-only effect; inactive = no such curve, though single readings can be large or run the other way. A potency beside an inconclusive call is a rough fit, not a confirmed value.
Also: nearly all actives have a fitted effect of over 25% in size.
Potency is read from the fitted curve at half-maximal effect; tags tell the direction and shape of the fitted curve.

These molecules were tested against Single-stranded DNA cytosine deaminase (Homo sapiens) (UniProt Q9GZX7) (assay: Primary qHTS assay for inhibitors of Activation Induced Cytidine Deaminase (AID): AID signal). Conditions: AID deamination FRET fluorescence, UDG-coupled, 4 h; series mostly up to 115 µM.
Chain of UniProt Q9GZX7 (Q9GZX7 whole entry, looked up): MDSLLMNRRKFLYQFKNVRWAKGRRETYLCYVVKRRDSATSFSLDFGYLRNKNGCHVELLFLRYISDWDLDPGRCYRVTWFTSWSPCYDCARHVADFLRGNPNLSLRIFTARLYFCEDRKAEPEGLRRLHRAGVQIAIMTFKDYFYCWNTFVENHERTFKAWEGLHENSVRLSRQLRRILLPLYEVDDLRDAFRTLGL
With `Clc1ccc2c(NN=C3CCCCC3)ccnc2c1` the Potency was “inactive”. `COc1cccc(CSC2=NS(=O)(=O)c3ccccc3N2Cc2ccccc2)c1` was tested, and the Potency was “inactive”. With `CCCc1nnc(NC(=O)C2(c3ccc(Cl)cc3)CCC2)s1` the Potency was “inactive”. `COc1cc(OC)c(NC(=O)CCCn2nc(C)c3sc4ccccc4c3c2=O)cc1Cl` was tested, and the Potency was inconclusive: 100 µM [inhibitor, partial curve, poor fit]. `COc1cccc(C2C(C#N)=C(N)OC3=C2C(=O)CC(c2ccccc2)C3)c1` (stereo unspecified) was tested, and the Potency was “inactive”. With `CC(C)NC(=O)CN(C)CC(O)COc1ccccc1F` (stereo unspecified) the Potency was “inactive”. `Cc1ccc(-c2cn3c(n2)sc2cc(C(=O)NCCCN4CCCCC4)ccc23)cc1` was tested, and the Potency was inconclusive: 70.8 µM [inhibitor, partial curve, poor fit]. With `COc1ccc(C2=NN(C(=O)c3cccs3)C(c3ccc4nccnc4c3)C2)cc1` (stereo unspecified) the Potency was inconclusive: 44.7 µM [inhibitor, partial curve]. With `O=Cc1ccc(-c2ccc(I)cc2Cl)o1` the Potency was “inactive”. In the case of `CCc1ccc(OCCCSc2nc(-c3ccc(C(C)(C)C)cc3)nc3cc(=O)[nH]n23)cc1`, the Potency is reported as active: 79.4 µM. In the case of `Cc1cc(C(c2ccccc2F)N2CCCCC2)c(NC(=O)c2ccco2)s1` (stereo unspecified), the Potency is reported as “inactive”. With `Cc1ccc(Cn2c(C(=O)Nc3cccc(Cl)c3)cc3sccc32)cc1` the Potency was inconclusive: 20 µM [inhibitor, full curve, poor fit]. `O=C(NCc1ccccc1F)C1CCN(c2nnc(-n3cccc3)s2)CC1` was tested, and the Potency was inconclusive: 31.6 µM [inhibitor, full curve, poor fit]. In the case of `COc1cc2c(=O)c(C(=O)c3ccc(C)c(C)c3)cn(Cc3ccccc3F)c2cc1OC`, the Potency is reported as inconclusive: 17.8 µM [inhibitor, full curve, poor fit]. In the case of `COc1cccc(-c2nc(S(=O)(=O)c3ccccc3)c(N3CCCCC3)o2)c1`, the Potency is reported as inconclusive: 44.7 µM [inhibitor, partial curve, poor fit]. `CC(C)Cc1ccc(S(=O)(=O)N2CCC(c3ccncc3)CC2)cc1` was tested, and the Potency was active: 35.5 µM. With `CCCCCCCCCCCCSCC(=O)O` the Potency was inconclusive: 79.4 µM [inhibitor, partial curve]. `CCOC(=O)c1c(C)n(-c2ccccc2)c2ccc(OC(=O)c3ccccc3NC(=O)C(C)C)cc12` was tested, and the Potency was inconclusive: 25.1 µM [inhibitor, full curve]. With `Cc1ccc(C)c(N2CCN(C(=O)CCC(=O)Nc3ccc4nc(N5CCCCC5)cc(C)c4c3)CC2)c1` the Potency was inconclusive: 28.2 µM [inhibitor, partial curve, poor fit]. For `O=C(NCc1ccc(Cl)cc1)c1ccc2c(Cl)c3c(nc2c1)CCCC3`, the Potency was inconclusive: 28.2 µM [inhibitor, partial curve]. `CCCN(Cc1cccs1)C(=O)Nc1cc(Cl)ccc1C` was tested, and the Potency was inconclusive: 50.1 µM [inhibitor, partial curve, poor fit]. With `CCc1ccc(CNC(=O)c2ccc3c(Cl)c4c(nc3c2)CCCC4)cc1` the Potency was inconclusive: 15.8 µM [inhibitor, full curve, poor fit]. For `COc1cc(-c2nc(S(=O)(=O)c3ccc(Br)cc3)c(N3CCOCC3)o2)cc(OC)c1OC`, the Potency was inconclusive: 22.4 µM [inhibitor, full curve, poor fit]. For `CCCCCCCC/C=C\CCCCCCCC(=O)NCCc1ccc(O)c(O)c1`, the Potency was inconclusive: 79.4 µM [inhibitor, partial curve, poor fit]. `CCOC(=O)c1ccc(NC(=O)C2CC(=O)NC(=Nc3ccc(C)c(C)c3)S2)cc1` (stereo unspecified) was tested, and the Potency was inconclusive: 63.1 µM [inhibitor, partial curve, poor fit]. For `Cc1ccc(N(CC(=O)NCCc2ccccc2C)S(=O)(=O)N(C)C)cc1`, the Potency was inconclusive: 39.8 µM [inhibitor, single point]. `CCOC(=O)c1cnc2c(C)c(Cl)ccc2c1NCCc1ccc(OC)c(OC)c1` was tested, and the Potency was inconclusive: 44.7 µM [inhibitor, partial curve]. For `Cc1cccc2c1-c1sc(C(=O)N3CCN(c4ccccc4)CC3)cc1CO2`, the Potency was inconclusive: 28.2 µM [inhibitor, full curve, poor fit]. For `c1ccc(-n2ncc3c(Nc4cccc5c4CCCC5)ncnc32)cc1`, the Potency was inconclusive: 56.2 µM [inhibitor, partial curve, poor fit]. In the case of `N#CCCCSc1ccc2c(c1)OCCCO2`, the Potency is reported as “inactive”. For `CCCOc1c(/C=N/O)cccc1OC`, the Potency was “inactive”. `Cc1cc(C)c(C(=O)C(C)OC(=O)c2ccc(CO)cc2)cc1C` (stereo unspecified) was tested, and the Potency was “inactive”. In the case of `CCCn1cc(S(=O)(=O)c2cccc(Cl)c2)c(=O)c2cc(F)c(N3CCOCC3)cc21`, the Potency is reported as inconclusive: 44.7 µM [inhibitor, full curve, poor fit]. With `Cc1c(C(=O)NC(C)c2ccccc2)sc2ncnc(N(C)C3CCCCC3)c12` (stereo unspecified) the Potency was inconclusive: 20 µM [inhibitor, full curve, poor fit]. In the case of `CCOC(=O)c1cccc(NC(=O)Cn2nc3c(cc2=O)CCCC3)c1`, the Potency is reported as “inactive”. For `CCOC(=O)C1CCN(c2nc3c(S(=O)(=O)c4ccc(Br)cc4)nnn3c3ccsc23)CC1`, the Potency was inconclusive: 7.08 µM [inhibitor, full curve, poor fit]. In the case of `COc1ccc(CCNC(=O)Cn2cc(C(=O)c3ccc(Cl)cc3)c(=O)c3ccc(C)nc32)cc1OC`, the Potency is reported as inconclusive: 89.1 µM [inhibitor, single point]. `CCn1c(C)cc(C(=O)COC(=O)c2nccnc2N)c1C` was tested, and the Potency was “inactive”. `CC1CCN(C(=O)c2ccc3c(c2)N(Cc2ccccc2F)C(=O)c2ccccc2S3(=O)=O)CC1` was tested, and the Potency was inconclusive: 100 µM [inhibitor, single point]. `COc1ccc(C(=O)OCCOc2ccc(C#N)cc2)cc1F` was tested, and the Potency was “inactive”. In the case of `CCOc1ccc(CCNC(=O)c2ccc(-c3nc(CSc4ccc(C)cc4)c(C)o3)cc2)cc1`, the Potency is reported as “inactive”. In the case of `CCCN1CCN(CCCNC(=O)c2cc3c(Cl)nc4ccccc4c3s2)CC1`, the Potency is reported as inconclusive: 44.7 µM [inhibitor, partial curve, poor fit]. With `CCN(CC)c1nn2c(=O)c(C(=O)NCCc3ccc(C)cc3)cnc2s1` the Potency was inconclusive: 56.2 µM [inhibitor, partial curve, poor fit]. For `CCCCC1CCC(C(=O)N2CC(=O)Nc3ccc(F)cc3C2c2ccc(F)cc2)CC1` (stereo unspecified), the Potency was active: 35.5 µM. For `O=C(Nc1ccc(C(=O)N2CCN(c3ccc(F)cc3)CC2)cc1)c1nsc2ccccc12`, the Potency was inconclusive: 10 µM [inhibitor, partial curve, poor fit]. `CCOC(=O)c1c(S(=O)(=O)N2CCCC(C(=O)Nc3ccc(OCC)cc3)C2)c(C)n(C)c1C` (stereo unspecified) was tested, and the Potency was inconclusive: 39.8 µM [inhibitor, single point]. In the case of `O=C(c1c2c(nc3ccccc13)C(=O)N(C1CCCCC1)C2)N1CCN(c2ccc(F)cc2)CC1`, the Potency is reported as inconclusive: 35.5 µM [inhibitor, partial curve, poor fit]. For `N#Cc1c(SCC(=O)N2CCOCC2)nc(N2CCCCC2)c2c1CCCC2`, the Potency was inconclusive: 56.2 µM [inhibitor, partial curve, poor fit]. With `CCc1nc2sc(C(C)=O)c(N)c2cc1C` the Potency was “inactive”. For `COc1ccc(CCNC(=O)c2ccc(Cn3c(=O)c4cccn4c4cccnc43)cc2)cc1OC`, the Potency was inconclusive: 89.1 µM [inhibitor, single point]. For `COc1ccc(-c2c3c(nc4sc(C(=O)Nc5cccc(OC)c5)c(N)c24)CC(C)(C)CC3=O)cc1`, the Potency was inconclusive: 50.1 µM [inhibitor, partial curve, poor fit]. For `Cc1cccc(NC(=O)CSc2nc(-c3cccs3)nc3cc(=O)[nH]n23)c1`, the Potency was “inactive”. For `O=C(Nc1ccccc1Cl)N1CCC2(CC1)Oc1ccccc1C(=O)N2Cc1ccc(F)cc1`, the Potency was inconclusive: 2.82 µM [inhibitor, full curve, poor fit]. For `COc1ccccc1-c1nc(SCc2cc(=O)n3c4c(sc3n2)CCCC4)n[nH]1`, the Potency was “inactive”. With `O=C(Nc1cccc(C(=O)OCc2cc(=O)n3c4c(sc3n2)CCCC4)c1)c1cccc(F)c1` the Potency was inconclusive: 28.2 µM [inhibitor, partial curve, poor fit]. With `COc1ccc(NC(=O)CCS(=O)(=O)c2nc(-c3ccc4c(c3)OCO4)cc(C(F)(F)F)n2)cc1OC` the Potency was inconclusive: 50.1 µM [inhibitor, partial curve, poor fit]. For `CC(C1CC1)N(Cc1ccccc1)C(=O)CSc1cc(C(N)=O)c2ccccc2n1` (stereo unspecified), the Potency was “inactive”. For `O=c1cc(COc2ccccc2Cl)nc2scc(-c3ccccc3)n12`, the Potency was “inactive”. `COc1cccc(CNC(=O)c2sc3ncccc3c2-n2c(C)ccc2C)c1OC` was tested, and the Potency was inconclusive: 35.5 µM [inhibitor, partial curve]. For `Cc1ccc(S(=O)(=O)N2c3cccc4cccc(c34)S2(=O)=O)cc1`, the Potency was “inactive”. In the case of `CC(C)C(=O)/C(C#N)=C\c1cccc(C#N)c1`, the Potency is reported as “inactive”. With `Cc1ccc(CN2C(=O)SC(Nc3ccc(Cl)cc3)C2=O)cc1` (stereo unspecified) the Potency was “inactive”. In the case of `COc1ccc(Cc2nc3ccccc3n2Cc2ccccc2C)cc1`, the Potency is reported as inconclusive: 35.5 µM [inhibitor, full curve]. With `COc1ccc(NC(=O)N2CCCn3nc(C)cc32)cc1OC` the Potency was inconclusive: 100 µM [inhibitor, single point]. `CCc1ccc(NC(=O)c2cnn(-c3c(C)cccc3C)c2C2CCN(C(=O)OC(C)(C)C)CC2)cc1` was tested, and the Potency was inconclusive: 20 µM [inhibitor, full curve, poor fit]. `COc1ccc(OC)c(NC(=O)CSC2=Nc3ccccc3C3=NC(CC(=O)NCCc4ccccc4)C(=O)N23)c1` (stereo unspecified) was tested, and the Potency was inconclusive: 44.7 µM [inhibitor, partial curve].
